The results in this text go back to the supplement of paper PMC4967469.

By IC50 is meant the dose at which the fit gives 50% viability; where the fit passes the top or lowest dose, that dose stands as a limit. AUC, from the same fit, is the share of area under the viability curve across the 256-fold dose range; it is 1 without any effect and falls as sensitivity rises. The top dose, if marked as inferred, is not printed in the source and was worked back from the curve model. Bounds are passed on as bounds.

Compound in one assay: CC(C)=CC[C@@H](O)C1=CC(=O)c2c(O)ccc(O)c2C1=O [Shikonin]
The assay is described as follows: Viability of human cancer cell lines after 72 h of drug (GDSC screen). The conditions noted are these: top dose 16 µM; top dose inferred. How it is done:
(§1)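 Human cancer cell lines in 384-well plates, medium with 10% serum, drug for 72 h over a 256-fold dose range (nine 2-fold or five 4-fold steps up to the top dose). Adherent lines were fixed and stained with the nucleic acid dye Syto60, suspension lines read with resazurin; signal relative to control wells, capped at 0 and 100%. One two-parameter sigmoid per drug and line, fitted in a mixed model over all curves with the slope shared within a line.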
As usually defined, the IC50 is the point on the concentration scale where inhibition reaches its midpoint. As to HDLM-2 (Hodgkin lymphoma, suspension), the AUC is 0.852 and the IC50 stood at 12.1 µM.

As for HH (T-cell leukaemia, suspension), the AUC amounted to 0.494 and the IC50 was 0.958 µM.

For the cell line HT (B-cell lymphoma, suspension), the AUC turned out to be 0.488 and the IC50 is 0.932 µM.

Regarding IMR-5 (neuroblastoma, adherent), the AUC came out at 0.383 and the concentration for half-maximal inhibition (IC50) came out at 0.504 µM.

Consider “IST-SL1 (small cell lung carcinoma, semi-adherent)”, for which the AUC was determined as 0.904 and the IC50 is over 16 µM.

Turning to JM1 (B-cell lymphoma, suspension), the AUC worked out at 0.198 and the IC50 was 0.151 µM.

As to JVM-2 (lymphoid neoplasm, suspension), the AUC was 0.702 and the IC50 stood at 4.27 µM.

Take JVM-3 (lymphoid neoplasm, suspension): the AUC is 0.886 and the IC50 was over 16 µM.

For the cell line “JiyoyeP-2003 (Burkitt lymphoma, suspension)”, the AUC was 0.559 and the IC50 was 1.41 µM.

With “KARPAS-45 (lymphoblastic leukaemia, suspension)”, the AUC stood at 0.763 and the IC50 worked out at 4.89 µM.

“KARPAS-299 (anaplastic large cell lymphoma, suspension)”: the AUC amounted to 0.484 and the IC50 was determined as 0.909 µM.

Turning to “KARPAS-422 (B-cell lymphoma, suspension)”, the AUC was found to be 0.666 and the IC50 is 2.87 µM.

“KE-37 (lymphoblastic leukaemia, suspension)”: the AUC is 0.355 and the concentration for half-maximal inhibition (IC50) came out at 0.441 µM.

As for KM-H2 (Hodgkin lymphoma, suspension), the AUC was determined as 0.542 and the IC50 is 1.28 µM.

Regarding “KMOE-2 (acute myeloid leukaemia, suspension)”, the AUC stood at 0.446 and the IC50 worked out at 0.723 µM.

In the case of KNS-81-FD (glioma, adherent), the AUC was 0.548 and the IC50 was 1.42 µM.

KS-1 (glioma, adherent): the AUC is 0.23 and the IC50 stood at 0.131 µM.

With “KU812 (chronic myeloid leukaemia, suspension)”, the AUC was 0.143 and the half-maximal inhibitory concentration (IC50) is 0.0889 µM.

Take KY821 (leukaemia, suspension): the AUC worked out at 0.434 and the IC50 was found to be 0.676 µM.

As to L-363 (myeloma, suspension), the AUC came out at 0.659 and the IC50 was found to be 2.59 µM.

Turning to L-540 (Hodgkin lymphoma, suspension), the AUC was 0.782 and the IC50 was 5.92 µM.

On to L-1236 (Hodgkin lymphoma, suspension), for which the AUC stood at 0.647 and the IC50 came out at 2.38 µM.

Compound in a further assay: O=C1NC(=O)c2c1c(-c1ccccc1Cl)cc1[nH]c3ccc(O)cc3c21 [Wee1 inhibitor 681640]
Described as above. The following applies: top dose 2 µM; top dose inferred. The procedure:
as §1
As for HDLM-2 (Hodgkin lymphoma, suspension), the AUC came to 0.943 and the IC50 was over 2 µM.

In the case of HH (T-cell leukaemia, suspension), the AUC worked out at 0.947 and the IC50 is over 2 µM.

Take HT (B-cell lymphoma, suspension): the AUC is 0.97 and the half-maximal inhibitory concentration (IC50) is over 2 µM.

With IMR-5 (neuroblastoma, adherent), the AUC is 0.991 and the IC50 is over 2 µM.

Consider “IST-SL1 (small cell lung carcinoma, semi-adherent)”, for which the AUC was 0.855 and the IC50 is 1.67 µM.

For JM1 (B-cell lymphoma, suspension), the AUC is 0.964 and the IC50 is over 2 µM.

As for JVM-2 (lymphoid neoplasm, suspension), the AUC was 0.914 and the 50% inhibitory concentration (IC50) was over 2 µM.

With JVM-3 (lymphoid neoplasm, suspension), the AUC was 0.914 and the IC50 is over 2 µM.

Turning to “JiyoyeP-2003 (Burkitt lymphoma, suspension)”, the AUC was 0.991 and the IC50 is over 2 µM.

With “KARPAS-45 (lymphoblastic leukaemia, suspension)”, the AUC was 0.962 and the IC50 was over 2 µM.

Regarding “KARPAS-299 (anaplastic large cell lymphoma, suspension)”, the AUC was determined as 0.957 and the IC50 is over 2 µM.

For “KARPAS-422 (B-cell lymphoma, suspension)”, the AUC was 0.972 and the IC50 was over 2 µM.

Consider “KE-37 (lymphoblastic leukaemia, suspension)”, for which the AUC was determined as 0.914 and the IC50 worked out at 1.67 µM.

With KM-H2 (Hodgkin lymphoma, suspension), the AUC was 0.977 and the half-inhibitory concentration (IC50) is over 2 µM.

Regarding “KMOE-2 (acute myeloid leukaemia, suspension)”, the AUC came out at 0.977 and the IC50 was over 2 µM.

As to KNS-81-FD (glioma, adherent), the AUC was determined as 0.899 and the IC50 is over 2 µM.

On to KS-1 (glioma, adherent), for which the AUC worked out at 0.958 and the IC50 is over 2 µM.

As to “KU812 (chronic myeloid leukaemia, suspension)”, the AUC was determined as 0.943 and the IC50 is over 2 µM.

For the cell line KY821 (leukaemia, suspension), the AUC is 0.949 and the IC50 was over 2 µM.

In the case of L-363 (myeloma, suspension), the AUC stood at 0.954 and the IC50 was over 2 µM.

As to L-540 (Hodgkin lymphoma, suspension), the AUC was 0.941 and the IC50 is over 2 µM.

For L-1236 (Hodgkin lymphoma, suspension), the AUC came out at 0.987 and the IC50 was over 2 µM.

Compound in the next assay: CCNc1cc(NC2CCC(O)CC2)nc(Nc2ccc3c(ccn3Cc3ccccc3)c2)n1 [CGP-082996 (CINK4)]
Described as above. The conditions noted are these: top dose 5.12 µM; top dose inferred. How it is done:
as §1
Turning to HDLM-2 (Hodgkin lymphoma, suspension), the AUC was 0.922 and the half-maximal inhibitory concentration (IC50) was over 5.12 µM.

HH (T-cell leukaemia, suspension): the AUC came to 0.875 and the IC50 is over 5.12 µM.

For the cell line HT (B-cell lymphoma, suspension), the AUC is 0.921 and the IC50 was over 5.12 µM.

In the case of IMR-5 (neuroblastoma, adherent), the AUC is 0.936 and the IC50 was over 5.12 µM.

As to “IST-SL1 (small cell lung carcinoma, semi-adherent)”, the AUC worked out at 0.949 and the half-inhibitory concentration (IC50) is over 5.12 µM.

Consider JM1 (B-cell lymphoma, suspension), for which the AUC was determined as 0.865 and the IC50 stood at 3.48 µM.

For JVM-2 (lymphoid neoplasm, suspension), the AUC worked out at 0.977 and the IC50 is over 5.12 µM.

Take JVM-3 (lymphoid neoplasm, suspension): the AUC was 0.987 and the IC50 is over 5.12 µM.

Take “JiyoyeP-2003 (Burkitt lymphoma, suspension)”: the AUC was 0.958 and the IC50 was over 5.12 µM.

As to “KARPAS-45 (lymphoblastic leukaemia, suspension)”, the AUC amounted to 0.858 and the IC50 came to 3.14 µM.

As for “KARPAS-299 (anaplastic large cell lymphoma, suspension)”, the AUC was 0.937 and the IC50 was over 5.12 µM.

With “KARPAS-422 (B-cell lymphoma, suspension)”, the AUC amounted to 0.829 and the IC50 was determined as 3.13 µM.

As for “KE-37 (lymphoblastic leukaemia, suspension)”, the AUC was 0.981 and the IC50 is over 5.12 µM.

Take KM-H2 (Hodgkin lymphoma, suspension): the AUC came out at 0.96 and the IC50 is over 5.12 µM.

Turning to “KMOE-2 (acute myeloid leukaemia, suspension)”, the AUC was determined as 0.983 and the IC50 is over 5.12 µM.

KNS-81-FD (glioma, adherent): the AUC came to 0.966 and the IC50 is over 5.12 µM.

As for KS-1 (glioma, adherent), the AUC stood at 0.835 and the IC50 was determined as 4.59 µM.

As for “KU812 (chronic myeloid leukaemia, suspension)”, the AUC was found to be 0.942 and the concentration for half-maximal inhibition (IC50) was over 5.12 µM.

With KY821 (leukaemia, suspension), the AUC was 0.933 and the IC50 was over 5.12 µM.

Turning to L-363 (myeloma, suspension), the AUC is 0.914 and the concentration for half-maximal inhibition (IC50) was over 5.12 µM.

As for L-540 (Hodgkin lymphoma, suspension), the AUC came out at 0.943 and the IC50 was over 5.12 µM.

For the cell line L-1236 (Hodgkin lymphoma, suspension), the AUC was 0.99 and the half-inhibitory concentration (IC50) was over 5.12 µM.
